In the RNAGym collection of RNA variant scans (doi:10.1101/gad.245936.114) one finds nonsense suppression data, which are given here for 54 variants.

Variants at the floor of the assay are shown more often than the library holds them. Where only a bound is given, the exact number is not on record here.

Sequences and labels used below:
B1: tRNA (parent)
chain: CUCUCGGUAGCCAAGUUGGUUUAAGGCGCAAGACUUUAAUUUAUCACUACGAAAUCUUGAGAUCGGGCGUUCGACUCGCCCCCGGGAGAUUUUUUCCUCGAGCAA

In the series the parent is B1. Briefly: nonsense suppression (GFP-seq) (ratio to wild type); higher = more function; SUP4oc tRNA, yeast GFP reporter sort-seq. In outline:
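To measure nonsense suppression, tRNA variants from a library carrying ~3% random mutations were integrated into the yeast genome alongside RFP and a GFP ochre reporter under galactose control. Growth took place in raffinose/galactose medium supplemented with 80 mg/L adenine, followed by sorting into GFP/RFP bins and Illumina sequencing of each bin (phred ≥30). For each variant with ≥100 reads and ≥30 cells, the bin median GFP/RFP values were weighted by its estimated cell share per bin and referenced to the unmutated parent tRNA.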
In the case of CCCUCGGUAGCCAAGUUGGUUCAAGGCGCAAGACUUUAAUUUAUCACUACGAAAUUUAGAGAUCGGGCGUUCGACGCGCCCCCGGGAGAUUUUUUCCUCGAGCAA, the nonsense suppression is at most 0.026.

Consider CUCUCGGUAGCCAAGUUGGUUUAAGGCGCAACACUUUAAUUUAUCACUACGAAAUCUUGAGUUCCGGCGUUCGACUCGCACCCGGGAAAUUUUUUCCUCGAGCAA, for which the nonsense suppression was at most 0.026.

For CUAUGGGUAGCCAAGUUGGUUUAAGGCGCAAGACAUUAAUUUAUCACUACGAAAUCCUUACAUCGUGCGUUCGACUCGCCCCCGGGAGAUUUUUUCCUCGAGCAA, the nonsense suppression was at most 0.026. Under CUCUCGGUAGCCAAGUUGGUUUCAGGCGCAAGACUUUAAUUUAUCACUACGAAAUCUGGAGAUCGGGCGUUCGACUCGCCCCCGGGAGAUUUUUUCCUCGAGCAA stands at most 0.026; under CUCUCGGUAGCCAAGUUGGUUUAAGGCGCAAGACAUUAAUUUAUCACUACGAAAUCUUGACAUCGCGCGUUGGACUCGCCCCCGCGAGAUUUUUUCCUCGAGCAA, at most 0.026; under CUCUCGGUAGCCAAGUUGGUUUAGGGCGCAGGACUUUAAUUUAUCACUACGAAAUCUUGAGAUCGGGCGUUCGACUCGCCCCCCGGAGAUUUUUUCCUCGAGCAA, at most 0.026.

As to CUCUCGGUAGCCAAGAUGGUUUAAGGCGCAAGACUUUAAUUUAUCACUACGAAAUCUUGAGAUCGGGCGUUCGACUGGCCCCCGGGAGAUUUUUUCCUCGAGCAA, the nonsense suppression is at most 0.026. Regarding CUCGCGGUAGCCAAGUUGGUUUAAGGCGCAAGACUUUAAUUUAUCACUACGAAAUCUUGAGAUCGGGCGUUCGACUCCCCCCCGGGAGUUUUUUUCCUCGAGCAA, the nonsense suppression was at most 0.026.

Take CUCUCAGUAGCCAAGUUGCUUUAAGGCGCAAGACUUUAAUUUAUCACUACGAAAUCUUGAGAUCGGGCGUUCGACUCGCCCCCUGGAGAUUUUUUCCUCGAGCAA: the nonsense suppression is at most 0.026. Under CUCUCGGUAGUCAAGUUGGUUUAAGGCGCAAGACUUUAAUUUAUCACUACGAAAUCUUGAGACCGGGCGUUCGACUCGCUCCCGGGAGAUUUUUUCCUCGAGCAA stands at most 0.026; under CUCUCGGUAGCCAAGUUGGUUUAAGGCGCAAGACUUUAAUUUAUCACUACGAAAUCUUGAGAUCGGGCGUUCAACUCGCCCCCGGGAGGUUUUUUCCUCGAGCAA, at most 0.026. Under CUCUCAGUAGCCAAGUUGGAUUCAGGCGCAAGACUUUAAUUUAUCACUACGAAAUCUUGAGAUCUGGCGUUCGACUCGCCCCCGGGAGAUUUUUUCCUCGAGCAA stands at most 0.026; under CGCUCGGUAGCCAAGUUGGUUUAAGGCGACAGACUUUAAUUUAUCACUACGAAAUCUUGAGAUCGGGCGUUCGACUCGCCCCCGUGAGAUUUUUUCCUCGAGCAA, at most 0.026. In the case of CUCUCGGUAGCCAAGUUAGUUCAAGGCGCAAGACUUUAAUUUAUCACUACGAAAUCUUGAGAUCGGGCGUUCGACUCGCCCCCGGGAGAUUUUUUCCUCGAGCAA it was at most 0.026; in that of CUCUCGGUAGCCAAGUUGGUUUGAGGCGCAAGACUUUAAUUUAUCACUACGAAAUCUUCAGAUCGGGCGUUCGACUCGCCCCCGGUAGAUUUUUUCCUCGAGCAA, at most 0.026. Turning to CUAUCGGUAGCCAAGUUGGUUUAAGGCGCAAGACUUUAAUUUAUCACUACGAAAUAUUGAGAUCGGGCGUUCGACUCGCCCCCGGGAGAUUUUUUCCUCGAGCAA, the nonsense suppression is at most 0.026.

On to CUCUCGGUAACCAAGUUGGUUUAAGGCGCAAGGCUUUAAUUUAUCACUACGAAAUCUAGAGAUCGGGAGUUCGACUCGCCCCCGGUAAAUUUUUUCCUCGAGCAA, for which the nonsense suppression was at most 0.026. With CUCUCGGUAGCCAAGUUGGUUUAAGGCGCAAGACUUUAAUUUAUCACUACGAAAUCUGGAGAUCGAGCGUUCGACUCGCCCCCGGGUGAUUUUUUCCUCGAGCAA, the nonsense suppression is at most 0.026.

Regarding CUCUCGGUAGCCAAGUUCGUUUAAGGCGCAAGUCUUUAAUUUAUCACUACGAAAUCUUUAGAUCGGGCGUUCGACUCGCCCCCGGGAGAUUUUUUCCUCGAGCAA, the nonsense suppression is at most 0.026.

Take CUGUCGGUAACCAAGUUGGUUUAAGGCGCAAGACUUUAAUUUAUCACUACGAAAUCUUGAUAUCGGGCGUUCGAAUCGCCACCGGGAGAUUUUUUCCUCGAGCAA: the nonsense suppression was at most 0.026. Under CUCUCGCUAGCCAACUUGGUUUAAGCCGCAAGACUUUAAUUUAUCACUACGAAAUCUUGAGCUCGGGCGUUCGACUCGCCGCCGGGAGAUUUUUUCCUCGAGCAA stands at most 0.026; under CUCUCGGUAGCCAAGUUGGUUUAAGGCGCAUGACUUUAAUUUAUCACUACGAAAUCUUGAGAUCGGGCGUUCGACUCGCCCCCAGGAGAUUUUUUCCUCGAGCAA, at most 0.026; under UUCUCGGUAGCCAAGUUGGUUUAAGGCGCAAGACUUUAAUUUAUCACUACGAAAUCUAGAGAUCGGGCGUUCGACCCGCCCCCGGGAGAUUUUUUCCUCGAGCAA, at most 0.026.

As for CUCUCGGUAGCCAAGUUGGUUUAAGGCGCAAGAUUUUAAUUUAUCACUACGAAAUCUUGAGCUCGGGCGUUCGACUCGCCCCCGGGAGAUUUUUUCCUCGAGCAA, the nonsense suppression was at most 0.026. In the case of CACUCGGUAGCCAAGUUGGUUUAAGGCGCUAGACUUUAAUUUAUCACUACGAAAUCUUGCGAUCGGGCGUUCGACUCGCCCCCGGGAGAUUUUUUCCUCGAGCAA it was at most 0.026; in that of CUUUCGGUAGCCAAGUUGGUUUAAGGCGCAAGACUUUAAUUUAUCACUACGAAAUCUUGAGAUCGGGCGUUCGAUUCGCCCCCGGGAGAUUUUUUCCUCGAGCAA, 0.539; in that of CUCUCGGUAGCCAAGUUGGUUUAAGGCGCAAGACUUUAAUUUAUCACUACGAAAUCUUGAGAUCGGGCGUUCGACUCGCCCCCGGGGCAUUUUUUCCUCGAGCAA, at most 0.026. Under CUCUCGGCAGCCAAGUUGGUUUAAGGCGCAAGACUUUAAUUUAUCACUACGAAAUCUUGAGAUCGGGCGUUCGACUCGCCCCCCGGAGAUUUUUUCCUCGAGCAA stands at most 0.026; under CUCUCGGUUGCCAAGUUGGUUUAAGGCGCAAGACUUUAAUUUAUCACUACGAAAACUUGAGAUCGGGCGUUCGACACGCCCCCGGGAGAUUUUUUCCUCGAGCAA, at most 0.026. On to CUCUCGGUAGCAAAGUUGGUUUUAGGCGCAAGACUUUAAUUUAUCACUACGAAAUCUUGAGAUCGGGCGUUAGACUCGCCCCCGGGAUAUUUUUUCCUCGAGCAA, for which the nonsense suppression was at most 0.026. As to CUCUCGGUAGCCAAGUCGGUUUAAGGCGCAAGAUUUUAAUUUAUCACUACGAAAUCUUGAGAUCGGGCGUUCGACUCGCUCCCGGGAGAUUUUUUCCUCGAGCAA, the nonsense suppression was at most 0.026.

CUCUCGGAAGCCAAGUUGGUUUAUGGACCAAGACUUUAAUUUAUCACUACGAAAUCUUGAGAUCGGGCGUUCGACACGCCCCCGGGAGAUUUUUUCCUCGAGCAA: the nonsense suppression was at most 0.026.

Regarding CUCUCGGUAGCCCAGUUGGUUUAACGCGCAAGACUUUAAUUUAUCACUACGAACUCUUGAGAUCGGGCGUUCGACUCGCCCCCGGGAGAUUUUUUCCUCGAGCAA, the nonsense suppression was at most 0.026. Under CUCGCGGUAGCCAAGUGGGUUUAAGGAGCAAGACUUUAAUUUAUCACUACGAAAUCUUGAGAUCGGUAGUUCGACUCGCCAACGGGAGAUUUUUUCCUCGAGCAA stands at most 0.026. As for CUCUCGGUAGCCAAGUCGGUUUAAGGCGCAAGACUUUAAUUUAUCACUACGAAUUCUUGAGAUCGGGCGUUCGACUCGCCCCCGGGAGAUUUUUUCCUCGAGCAA, the nonsense suppression stood at 0.788. Under CUCUCGGUAGCCAAGUUGGUUUAAGGCGCAAGACUUUAAUUUAUCACUACGAAAUCUUGAGAUCGGGCGUUAGACGCGCCCCCGGGAGAUUUUUUCCUCGAGCAA stands at most 0.026; under CUCUCGGUAGCCAAGUUGGCUUAAGGCGCAUGACUUUAAUUUAUCACUACGAAAUCUUGAGAUCGGGCGUUCGACUCGCCCCCGGGAAAUUUUUUCCUCGAGCAA, at most 0.026; under CUCUCGGUUGCCAAGUUGGUUUAAGGCGCAAGACUUUAAUUUAUCACUACGAAAUCUUGAGAUCGGGCGUUUGACUCGCCCCCGGGAGAUUUUUUCCUCGAGCAA, at most 0.026. For CUCUCGGCAUCCAAGUUGGUUUAAGGCGCAAGACUUUAAUUUAUCACUACGAAAUCUUGAGAUCGGGCGUUCGACUCGCCCCCGGGAGAUUUUUUCCUCGAGCAA, the nonsense suppression was at most 0.026.

Regarding CUCUCGGUAGCCAAGUUGGUUUGAGGCGCAAGACUUUAAUUUAUCACUACGAAAUCUUGAGAUCCGGCGUUCGACUCGCCCCCGGCAGAUUUUUUCCUCGAGCAA, the nonsense suppression is at most 0.026. In the case of GUCUCGGUAGCCAAGUUGGUUUAAGGCGCAAGACUUUAAUUUAUCACUACGAAUUCUUGAGAUCGCGCGUUCGACUCGCCCCCCGGAGAUUUUUUCCUCGAGCAA it was at most 0.026; in that of CUCUCUGUGCCCAAGUUGGUUUAAGGCGCAAGACUUUAAUUUAUCACUACGAAAUCUGGAGAUCGGGCGUUCGACUCGCCCCCGGGAGUUUUUUUCCUCGAGCAA, at most 0.026; in that of CUCUCGGAAGCCCAGUUGGUUUAAGGCAUAAGACUUUAAUUUAUCACUACGAAAUCUUGAGAUCCGGCGUUCGACUCGCCCCCGUGAGAUUUUUUCCUCGAGCAA, at most 0.026. With CUCUCGGUAGCCAAGUUGGUGUAAGGCGCAAGACUUUAAUUUAUCACUACGAAAUCUUGAUAGCGGGCGUUCGACUCGCCCCCGGGAGCUUUUUUCCUCGAGCAA, the nonsense suppression is at most 0.026. As for CUCUCGGUAGCCAUGUUGGUUUAAGGCGCAAGACUUUAAUUUAUCACUACGAAAUCUAGUGAUCGGGCGUUCGACUCGCCCCCGGGAGAUUUUUUCCUCGAGCAA, the nonsense suppression was at most 0.026. Regarding CUCUCGGUACCCCAGUUGGUUUAAGGCGCAAGACCUUAAUUUAUCACUACGAAAUCUUGAGAUGGGGCGUUCGACUCGCCCCCGGGAGAUUUUUUCCUCGAGCAA, the nonsense suppression was at most 0.026. Under CUCUCGGUAGCCAAGUUUGUUUAAAGCGCAAGACUUUAAUUUAUCACUACGAAAUCUUGAGAUCGGGCGUUCGACUCUCCCCCGGGAGAUUUUUUCCUCGAGCAA stands at most 0.026; under CUCUCGGUAGCGAAGUUGGUUUAAGGCGCAAGACUUUAAUUUAUCACUACGAAAUUUUGAGAUCGGGCGUUCGACUCGCCCCCGGGAGAUUUUUUCCUCGAGCAA, at most 0.026; under CUCUCGGUAGCCAAGAUGGCUUAAGGCGCACGACUUUAAUUUAUCACUACGAAAUUUUGAGAUCGGGCGUUCGACUCGCCCCCGGGAGAUUUUUUCCUCGAGCAA, at most 0.026. Turning to CUCUCGGUAGCCAAGUUGGUUUAAGGCGCAAGACUUUAAUUUAUCACUACGAAAUCUUGAGGUCCGGCGUUCGACUCGCCCCCGGGAGAUUUUUUCCUCGAGCAA, the nonsense suppression was at most 0.026. Under CUCUCGGUAGCCAAGUUGGAUUAAGGCGCAAGACUUUAAUUUAUCACUACGAAAUCUUGAGAUCGGGCGUUCGACGCGCCCCCGGGAGAUUUUUUCCUCGAGCAA stands at most 0.026; under CUCUCGGUAGCCAAGUUGGAUUAAGGCGCAAGCCUUUAAUUUAUCACUACGAAAUCUUGAGAUCGGGCGUUCGACUCGCCCCCGGGAGAUUUUUUCCUCGAGCAA, at most 0.026; under CUCUCGGUAGCCAAGUUGGUUUAAGGCGGCAGACUUUAAUUUAUCACUACGAAAUCUUGAGAUCGGGCGUUCGACUCGCCCCCGGGAGAUUUUUUCCUCGAGCAA, at most 0.026. In the case of CGCUCGGUAGCCAAGUUGGUUUAAGGCGCAGGACUUUAAUUUAUCACUACGAAAUCUUGAGAUCGGGCGUUCGACUCACCCCCGGGAGAUUUUUUCCUCGAGCAA it was at most 0.026.
